Hit rate of the full screen: of about 310,000 compounds, about 18,000 (5.8%) were called active. Inconclusive results, whose numbers are uncertain, are shown with a selection of clear calls. The call rests on the fitted dose curve; in most records, active means well fitted inhibition curve with a large enough effect; inconclusive means small, poorly fitted or top-dose-only effect, or another doubt; inactive means no such curve, though single readings can be large or run the other way. Potencies of inconclusive entries are left out as doubtful fits.
Test: Primary qHTS for delayed death inhibitors of the malarial parasite plastid, 48 hour incubation
Details: P. falciparum luciferase growth in erythrocytes; series mostly up to 28.7 µM
Method in brief: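 Growth was read as firefly luciferase luminescence after a 48 h, 37 C, 5% CO2 exposure of compounds to reporter-bearing P. falciparum cultures (0.1% parasitemia, 2% hematocrit final) in Albumax-supplemented RPMI 1640.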
Potency means the concentration at half of the fitted maximal effect; tags describe the fitted curve by direction and shape.

Row | Structure (SMILES) | Potency
1 | CCN(CC)C(=O)N[C@@H]1C=C2c3cccc4[nH]cc(c34)C[C@H]2N(C)C1 | inconclusive [inhibitor, single point]
2 | COc1ccc(C2CC(c3ccccc3)=NN2C(=O)CSc2ncccn2)cc1 (stereo not drawn) | inconclusive [inhibitor, single point]
3 | Cc1nc(SCC(=O)OCc2ccccc2)c(C#N)c(-c2ccccc2)c1C(=O)Nc1ccccc1 | inconclusive [inhibitor, single point]
4 | CC(OC(=O)c1snc(C(=O)NC2CCCCC2)c1N)C(=O)NC(C)(C)C (stereo not drawn) | inconclusive [inhibitor, single point]
5 | Cc1ccc(S(=O)(=O)N2CCC(NC(=O)OC(C)C)CC2)cc1 | inactive
6 | COc1ccc(CN2CCN(C(=O)c3ccc4nc(N5CCOCC5)sc4c3)CC2)c(OC)c1OC | inconclusive [inhibitor, partial curve, poor fit]
7 | Cc1cccc(NS(=O)(=O)c2ccc(C)c(C(=O)NCc3ccccn3)c2)c1 | inactive
8 | Cc1csc(=O)n1CC(=O)OCC(=O)NCc1ccccc1 | inconclusive [inhibitor, partial curve, poor fit]
9 | CCCCNC(=O)c1ccc(N2CCOCC2)c(NS(=O)(=O)c2ccc(OC)cc2)c1 | active: 7.38 µM
10 | CCN1C(=O)C(CC(=O)Nc2ccc(Br)cc2)N(CCCc2ccccc2)C1=S (stereo not drawn) | inconclusive [inhibitor, single point]
11 | COc1ccc(OC)c(NC(=O)C2CCCN(S(=O)(=O)c3cccc4nsnc34)C2)c1 (stereo not drawn) | inconclusive [inhibitor, single point]
12 | Cc1ccc(S(=O)(=O)c2nc(-c3ccccc3)oc2NCc2cccnc2)cc1 | inconclusive [inhibitor, single point]
13 | CCCC(CCC(=O)Nc1ccn(-c2ccccc2)n1)C(=O)O (stereo not drawn) | inactive
14 | CC(OC(=O)c1cc2ccccc2o1)C(=O)Nc1ccc(N2CCOCC2)cc1 (stereo not drawn) | inactive
15 | CCOC(=O)C1=C(C)C(c2ccc(OC)cc2)NC(=O)N1 (stereo not drawn) | inconclusive [inhibitor, partial curve, poor fit]
16 | COc1cc(NC(=O)Cc2c(C(=O)O)[nH]c3ccccc23)cc(OC)c1OC | inactive
17 | COc1ccc(NC(=O)CSc2nccn2Cc2ccc(F)cc2)c(OC)c1 | inconclusive [inhibitor, partial curve, poor fit]
18 | O=C(NCCCc1ccccc1)c1c(O)nc2sccn2c1=O | inconclusive [inhibitor, single point]
